Holding throughout (assay type): in vivo
One assay deals with Botrytis cinerea. The experiment in a line: Test Example B: Gray mold on tomato. Conditions: Gray mold on tomato.
In the next assay the test system is Alternaia brassicicola. The experiment in a line: Test Example C: Alternaria sooty spot on cabbage. The conditions noted are these: Alternaria sooty spot on cabbage.
For assay [1], the system named is Blumeria graminis f. sp. hordei. The experiment in a line: Test Example D: Powdery mildew on barley. Conditions: Powdery mildew on barley.
A further assay deals with Puccinia recondita. The experiment in a line: Test Example E: Brown rust on wheat. Conditions: Brown rust on wheat.
In a further assay the test system is Plasmopara viticola. Briefly: Test Example G: Downy mildew on vine. The conditions noted are these: Downy mildew on vine; 250 ppm sprayed, 2.5 ml/pot; 7 to 10 days after inoculation.

This is an account of results in patent US11178870B2 (priority 2017, dated 2021).

Take `CCn1c(-c2c(F)cc(OC)cc2F)c(-c2ccnn2C)cc(Cl)c1=O` [Compound 28]: the “Test B control value” with Botrytis cinerea was “H (H shows the control value more than 50%)”. Also, the “Test C control value” with Alternaia brassicicola is “H (H shows the control value more than 50%)”. In addition, the “Test D control value” in assay [1] is recorded as “H (H shows the control value more than 50%)”. Besides, in the assay with Puccinia recondita, the “Test E control value” is given as “H (H shows the control value more than 50%)”. Further, in the assay on Plasmopara viticola, the “Test G control value” was “L (L shows the control value of 50% or less)”.

Consider `CCn1c(-c2c(F)cc(OC)cc2F)c(-c2c(Cl)cnn2C)cc(Cl)c1=O` [Compound 29], for which the “Test B control value” in the assay on Botrytis cinerea is on record as “H (H shows the control value more than 50%)”. Besides, in the assay on Alternaia brassicicola, the “Test C control value” is “H (H shows the control value more than 50%)”. For the same compound, the “Test D control value” in assay [1] is on record as “H (H shows the control value more than 50%)”. Further, the “Test E control value” with Puccinia recondita is reported as “H (H shows the control value more than 50%)”. The “Test G control value” in the assay on Plasmopara viticola was “L (L shows the control value of 50% or less)”.

With `CCn1c(-c2c(F)cccc2F)c(-n2cccn2)ccc1=O` [Compound 31], the “Test B control value” with Botrytis cinerea was “H (H shows the control value more than 50%)”. Moreover, in the assay with Alternaia brassicicola, the “Test C control value” was “H (H shows the control value more than 50%)”. Moreover, in assay [1], the “Test D control value” is reported as “H (H shows the control value more than 50%)”. Besides, in the assay on Puccinia recondita, the “Test E control value” is reported as “L (L shows the control value of 50% or less)”. In addition, the “Test G control value” with Plasmopara viticola was “L (L shows the control value of 50% or less)”.

As for `CCn1c(-c2ccc(F)cc2Cl)c(-c2cnco2)cc(Cl)c1=O` [Compound 32], in the assay on Botrytis cinerea, the “Test B control value” is given as “H (H shows the control value more than 50%)”. Besides, the “Test C control value” in the assay on Alternaia brassicicola was “H (H shows the control value more than 50%)”. Besides, the “Test D control value” in assay [1] is recorded as “L (L shows the control value of 50% or less)”. In the assay on Puccinia recondita, the “Test E control value” is listed as “H (H shows the control value more than 50%)”. Besides, in the assay with Plasmopara viticola, the “Test G control value” is given as “L (L shows the control value of 50% or less)”.

`CCn1c(-c2ccc(OC)cc2Cl)c(-c2cnco2)cc(Cl)c1=O` [Compound 33]: the “Test B control value” with Botrytis cinerea is on record as “L (L shows the control value of 50% or less)”. In addition, in the assay with Alternaia brassicicola, the “Test C control value” is given as “H (H shows the control value more than 50%)”. The “Test D control value” in assay [1] was “L (L shows the control value of 50% or less)”. For the same compound, in the assay on Puccinia recondita, the “Test E control value” is given as “L (L shows the control value of 50% or less)”. Further, the “Test G control value” in the assay with Plasmopara viticola is on record as “L (L shows the control value of 50% or less)”.

Turning to `CCn1c(-c2c(F)cc(OC)cc2F)c(-c2cnco2)cc(Cl)c1=O` [Compound 37], the “Test B control value” in the assay on Botrytis cinerea is listed as “H (H shows the control value more than 50%)”. Besides, the “Test C control value” with Alternaia brassicicola is listed as “H (H shows the control value more than 50%)”. Also, the “Test D control value” in assay [1] is “L (L shows the control value of 50% or less)”. In addition, the “Test E control value” in the assay on Puccinia recondita is given as “H (H shows the control value more than 50%)”. In addition, the “Test G control value” with Plasmopara viticola is listed as “L (L shows the control value of 50% or less)”.

Consider `CCn1c(-c2ccc(F)cc2Cl)c(-c2ocnc2C)cc(Cl)c1=O` [Compound 38], for which the “Test B control value” in the assay with Botrytis cinerea is listed as “L (L shows the control value of 50% or less)”. The “Test C control value” in the assay on Alternaia brassicicola is given as “L (L shows the control value of 50% or less)”. In assay [1], the “Test D control value” is given as “L (L shows the control value of 50% or less)”. The “Test E control value” in the assay with Puccinia recondita is “L (L shows the control value of 50% or less)”. Besides, the “Test G control value” in the assay with Plasmopara viticola is given as “L (L shows the control value of 50% or less)”.

Consider `CCn1c(-c2c(F)cccc2F)c(-c2cnco2)cc(Cl)c1=O` [Compound 42], for which the “Test B control value” with Botrytis cinerea was “H (H shows the control value more than 50%)”. In the assay on Alternaia brassicicola, the “Test C control value” is reported as “H (H shows the control value more than 50%)”. The “Test D control value” in assay [1] is given as “L (L shows the control value of 50% or less)”. In the assay on Puccinia recondita, the “Test E control value” is “H (H shows the control value more than 50%)”. For the same compound, in the assay with Plasmopara viticola, the “Test G control value” is “L (L shows the control value of 50% or less)”.

`CCn1c(-c2c(F)cccc2F)c(-c2ccsc2Br)ccc1=O` [Compound 44]: the “Test B control value” with Botrytis cinerea is recorded as “H (H shows the control value more than 50%)”. Further, the “Test C control value” in the assay with Alternaia brassicicola was “H (H shows the control value more than 50%)”. In assay [1], the “Test D control value” is “H (H shows the control value more than 50%)”. Moreover, the “Test E control value” in the assay with Puccinia recondita is recorded as “H (H shows the control value more than 50%)”. For the same compound, the “Test G control value” in the assay with Plasmopara viticola is reported as “H (H shows the control value more than 50%)”.

Consider `CCn1c(-c2c(F)cccc2F)c(-c2ccsc2Br)cc(Cl)c1=O` [Compound 45], for which, in the assay on Botrytis cinerea, the “Test B control value” is “H (H shows the control value more than 50%)”. For the same compound, the “Test C control value” with Alternaia brassicicola was “H (H shows the control value more than 50%)”. Further, the “Test D control value” in assay [1] is reported as “H (H shows the control value more than 50%)”. In the assay on Puccinia recondita, the “Test E control value” is “H (H shows the control value more than 50%)”. Also, in the assay with Plasmopara viticola, the “Test G control value” is listed as “L (L shows the control value of 50% or less)”.

For the compound `CCn1c(-c2c(F)cc(F)cc2F)c(-n2ncnc2Br)cc(Br)c1=O` [Compound 46], the “Test B control value” in the assay on Botrytis cinerea is given as “H (H shows the control value more than 50%)”. In addition, the “Test C control value” in the assay with Alternaia brassicicola was “H (H shows the control value more than 50%)”. Also, in assay [1], the “Test D control value” was “H (H shows the control value more than 50%)”. In addition, the “Test E control value” with Puccinia recondita is reported as “H (H shows the control value more than 50%)”. The “Test G control value” with Plasmopara viticola is listed as “H (H shows the control value more than 50%)”.

With `CCn1c(-c2c(F)cc(F)cc2F)c(-n2cncn2)cc(Br)c1=O` [Compound 47], the “Test B control value” with Botrytis cinerea was “H (H shows the control value more than 50%)”. Further, in the assay with Alternaia brassicicola, the “Test C control value” was “H (H shows the control value more than 50%)”. In assay [1], the “Test D control value” is “H (H shows the control value more than 50%)”. Also, the “Test E control value” in the assay on Puccinia recondita is recorded as “H (H shows the control value more than 50%)”. In addition, the “Test G control value” in the assay on Plasmopara viticola is given as “L (L shows the control value of 50% or less)”.

As to `CCn1c(-c2c(F)cc(F)cc2F)c(-n2ncnc2I)cc(Cl)c1=O` [Compound 48], the “Test B control value” in the assay with Botrytis cinerea is listed as “H (H shows the control value more than 50%)”. Further, the “Test C control value” in the assay with Alternaia brassicicola is “H (H shows the control value more than 50%)”. The “Test D control value” in assay [1] is “H (H shows the control value more than 50%)”. Also, in the assay on Puccinia recondita, the “Test E control value” is “H (H shows the control value more than 50%)”. Also, the “Test G control value” in the assay with Plasmopara viticola is “H (H shows the control value more than 50%)”.

Regarding `CCn1c(-c2c(F)cccc2F)c(-c2ocnc2Br)cc(Cl)c1=O` [Compound 49], the “Test B control value” in the assay with Botrytis cinerea was “H (H shows the control value more than 50%)”. In addition, the “Test C control value” in the assay with Alternaia brassicicola is reported as “H (H shows the control value more than 50%)”. The “Test D control value” in assay [1] is listed as “H (H shows the control value more than 50%)”. The “Test E control value” in the assay with Puccinia recondita is “H (H shows the control value more than 50%)”. In addition, the “Test G control value” in the assay with Plasmopara viticola is listed as “H (H shows the control value more than 50%)”.

For the compound `CCn1c(-c2c(F)cccc2F)c(-c2ocnc2Cl)cc(Cl)c1=O` [Compound 50], the “Test B control value” in the assay with Botrytis cinerea was “H (H shows the control value more than 50%)”. Besides, the “Test C control value” with Alternaia brassicicola was “H (H shows the control value more than 50%)”. Moreover, in assay [1], the “Test D control value” was “H (H shows the control value more than 50%)”. Besides, the “Test E control value” in the assay with Puccinia recondita was “H (H shows the control value more than 50%)”. Also, the “Test G control value” in the assay on Plasmopara viticola is given as “H (H shows the control value more than 50%)”.
